This passage reports activity change, negative = inhibition results from PubChem BioAssay AID1745853 (National Center for Advancing Translational Sciences (NCATS), 2022).

Test in all cases: Primary Screen for Target Class Profiling of Small Molecule Inhibitors of Methyltransferases
Assay [1] deals with Glycine N-methyltransferase (Homo sapiens) (UniProt Q14749). To be noted: purified enzyme, MTase-Glo SAH luminescence; measured here: GNMT inhibition; at 40 µM; stronger effect = lower value. In a few lines: (§1)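 Each enzyme was reacted with SAM and its substrate, with compounds tested once at 40 uM; SAH formed was read by MTase-Glo luminescence.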
Assay [2] concerns the target Guanidinoacetate N-methyltransferase (Homo sapiens) (UniProt Q14353). To be noted: purified enzyme, MTase-Glo SAH luminescence; measured here: GAMT inhibition; at 40 µM; stronger effect = lower value. In a few lines:
as §1

In assay [3] the target is Histamine N-methyltransferase (Homo sapiens) (UniProt P50135). To be noted: purified enzyme, MTase-Glo SAH luminescence; measured here: HNMT inhibition; at 40 µM; stronger effect = lower value. The method in brief: as §1
The target of assay [4] is Nicotinamide N-methyltransferase (Homo sapiens) (UniProt P40261). To be noted: purified enzyme, MTase-Glo SAH luminescence; measured here: NNMT inhibition; at 40 µM; stronger effect = lower value. The method in brief:
as §1

Assay [5] deals with Phenylethanolamine N-methyltransferase (Homo sapiens) (UniProt P11086). To be noted: purified enzyme, MTase-Glo SAH luminescence; measured here: PNMT inhibition; at 40 µM; stronger effect = lower value. In a few lines: as §1

This is one part of the list. The main result of the screen is listed elsewhere. These columns were measured beside it and carry no call.
% is set by controls: 0 for no effect and ±100 for the full control effect.

For `CCCn1c(=O)c2ccc(C(=O)NC(C)C)cc2n2c(=O)n(CC(=O)Nc3cccc(F)c3)nc12`, the activity change, negative = inhibition in assay [1] was -2.56%; in assay [2] it was 2.01%; in assay [3] it was -3.8%; in assay [4] it was -6.82%; in assay [5], -1.93%.

Consider `C[S+](=O)([O-])N1CC2(Cc3ccccc31)CN(C(=O)c1ccc(F)cc1)C2`, for which the activity change, negative = inhibition in assay [1] was -7.64%; in assay [2], -1.89%; in assay [3], 0.955%; in assay [4], -5.06%; in assay [5], -0.659%.

On to `Cc1nccnc1CN1CCC2(CC1)CCN(Cc1ncc[nH]1)CC2CO` (stereo not given), for which the activity change, negative = inhibition in assay [1] is -1.25%; in assay [2] it was 0.912%; in assay [3], -0.642%; in assay [4] it was -1.37%; in assay [5] it was 1.13%.

As to `CSCCC(NS(=O)(=O)c1ccc2c(c1)oc(=O)n2C)C(=O)N1CCC(Cc2ccccc2)CC1` (stereo not given), the activity change, negative = inhibition in assay [1] is 4.49%; in assay [2], 0%; in assay [3] it was 8.16%; in assay [4], -5.81%; in assay [5], -1.46%.

On to `CC1=C2CC3OC3(C)CCC3OC3(C)CC2OC1=O` (stereo not given), for which the activity change, negative = inhibition in assay [1] was 5.79%; in assay [2], 2.56%; in assay [3] it was 6.72%; in assay [4] it was -8.31%; in assay [5] it was -1.44%.

In the case of `O=C(c1ccccc1)N1CCC(c2nnc3n2C(C(=O)N2CCN(c4ncccn4)CC2)CC3)CC1` (stereo not given), the activity change, negative = inhibition in assay [1] was -1.82%; in assay [2] it was -1.72%; in assay [3] it was -0.348%; in assay [4], -5.6%; in assay [5], -2.39%.

Turning to `COc1ccc(CNC(=O)c2sc(=S)n3c2[nH]c(=O)c2cc4c(cc23)OCO4)cc1`, the activity change, negative = inhibition in assay [1] was -6.49%; in assay [2], 0%; in assay [3] it was 3.61%; in assay [4] it was -2.63%; in assay [5], -3.45%.

In the case of `O=C(Cc1ccccc1)OC[C@H]1O[C@H](O[C@H]2O[C@H](CO)[C@@H](O)[C@H](O)[C@H]2O)[C@H](O)[C@@H](O)[C@@H]1O`, the activity change, negative = inhibition is 1.19% in assay [1]; 2.38% in assay [2]; 10.8% in assay [3]; -10.5% in assay [4]; -6.08% in assay [5].

For the compound `O=C(N1CCC(Cc2nc(C3CC3)n[nH]2)CC1)C1(c2ccccc2)CC1`, the activity change, negative = inhibition in assay [1] is -2.27%; in assay [2], 0.134%; in assay [3] it was 1.19%; in assay [4], -4.3%; in assay [5], -2.57%.

As to `CC(C)C1c2cccn2CCN1C(=O)Nc1ccc(F)cc1` (stereo not given), the activity change, negative = inhibition in assay [1] stood at 15.5%; in assay [2], 0.408%; in assay [3] it was 7.96%; in assay [4], 9.29%; in assay [5], 7.78%.

For `CCCCN1C(=O)c2cc(C(=O)Nc3ccc(OC)cc3OC)nn2CC1(C)C(=O)NC1CCCC1` (stereo not given), the activity change, negative = inhibition in assay [1] turned out to be 6.43%; in assay [2] it was 0.014%; in assay [3] it was 2.9%; in assay [4] it was 6.07%; in assay [5], 9.52%.

Take `CN(CC(=O)NC1CCCCC1)S(=O)(=O)c1ccc2[nH]c3c(c2c1)CCCC3`: the activity change, negative = inhibition in assay [1] was 2.52%; in assay [2] it was 0.8%; in assay [3], 1.65%; in assay [4], -5.26%; in assay [5], 1.78%.

On to `COc1cc2ncnc(Nc3ccc(F)c(Cl)c3)c2cc1O`, for which the activity change, negative = inhibition in assay [1] is -27.6%; in assay [2], -6.95%; in assay [3], -42.8%; in assay [4] it was -21.1%; in assay [5] it was -24.7%.

Regarding `CCCC1c2ccc(C)n2CCN1C(=O)Nc1ccc(C)c(F)c1` (stereo not given), the activity change, negative = inhibition in assay [1] was -5.62%; in assay [2], 4.93%; in assay [3], -7.66%; in assay [4], 0.121%; in assay [5], -4%.

As to `CCc1cc2c(cc3n2CC(C)(C(=O)NC2CCCCC2)N(c2ccc(C(C)C)cc2)C3=O)s1` (stereo not given), the activity change, negative = inhibition turned out to be 5.5% in assay [1]; 0.143% in assay [2]; 9.56% in assay [3]; 16.1% in assay [4]; 3.81% in assay [5].

For the compound `CC(=O)Nc1ccc(NC(=O)C2c3ccccc3C(=O)N(C3CCCC3)C23CCCC3)cc1` (stereo not given), the activity change, negative = inhibition in assay [1] is -5.76%; in assay [2] it was -10.5%; in assay [3], -7.34%; in assay [4] it was -15.7%; in assay [5], -23.3%.

Consider `COc1ccccc1CNC(=O)C1(C)Cn2c(cc3ccccc32)C(=O)N1Cc1ccc2c(c1)OCO2` (stereo not given), for which the activity change, negative = inhibition is -2.52% in assay [1]; -1.22% in assay [2]; 1.74% in assay [3]; -4.53% in assay [4]; -2.15% in assay [5].

For `C[C@@H]1O[C@@H](O[C@H]2[C@H](O[C@H]3CC[C@@]4(C)C(CC[C@]5(C)C4C=C[C@]46OC[C@@]7(CCC(C)(C)C[C@H]74)[C@@H](O)C[C@]65C)[C@]3(C)CO)O[C@H](CO)[C@@H](O)[C@@H]2O[C@@H]2O[C@H](CO)[C@@H](O[C@@H]3O[C@@H](C)[C@H](O)[C@@H](O)[C@H]3O)[C@H](O)[C@H]2O)[C@H](O)[C@H](O)[C@H]1O` (stereo not given in full), the activity change, negative = inhibition in assay [1] is -3.35%; in assay [2], -5.96%; in assay [3], 4.21%; in assay [4], -11.9%; in assay [5], -0.478%.

On to `CC(CN1C(=O)c2ccc(-c3ccccc3)n2CC1(C)C(=O)NC1CCCC1)c1ccccc1` (stereo not given), for which the activity change, negative = inhibition in assay [1] is 6.71%; in assay [2], 0%; in assay [3], 7.54%; in assay [4], -0.269%; in assay [5], 6.88%.

In the case of `CC(C)c1ccc(NC(=O)Cn2c(=O)oc3cc(S(=O)(=O)N4CCCC4)ccc32)cc1`, the activity change, negative = inhibition is -5.3% in assay [1]; 3.72% in assay [2]; 6.95% in assay [3]; 9.8% in assay [4]; -9.37% in assay [5].

In the case of `CN1C(=O)c2cc(C(=O)NCCCN3CCOCC3)nn2CC1(C)C(=O)NCc1ccc(F)cc1` (stereo not given), the activity change, negative = inhibition stood at 10.7% in assay [1]; 0% in assay [2]; 6.82% in assay [3]; 13% in assay [4]; 5.71% in assay [5].

With `CCOc1ccccc1CN1C(=O)c2c(C(=O)OC)ncn2CC1(C)C(=O)NC1CCCCC1` (stereo not given), the activity change, negative = inhibition worked out at 6.75% in assay [1]; 0% in assay [2]; 7.02% in assay [3]; 4.49% in assay [4]; 5.24% in assay [5].

Consider `Cc1ccc(C(=O)CSc2nnc3n(CC(C)C)c(=O)c4ccc(C(=O)NC(C)C)cc4n23)cc1`, for which the activity change, negative = inhibition amounted to 3.89% in assay [1]; 0% in assay [2]; 2.32% in assay [3]; 4.33% in assay [4]; 2.8% in assay [5].

As for `CCOC(=O)c1cc2n(n1)CC(C)(C(=O)NC1CCCC1)N(c1ccc(OCC)cc1)C2=O` (stereo not given), the activity change, negative = inhibition was determined as 6.23% in assay [1]; 1.5% in assay [2]; 4.01% in assay [3]; 9.8% in assay [4]; 5.11% in assay [5].

On to `COc1ccc(NC(=O)CCc2nnc3n(CC(C)C)c(=O)c4ccccc4n23)cc1OC`, for which the activity change, negative = inhibition in assay [1] was 7.72%; in assay [2] it was 0%; in assay [3] it was 5.93%; in assay [4] it was 5.06%; in assay [5], -3.21%.

`CCN1C(=O)C2(CCN(S(=O)(=O)c3cc(C)ccc3C)CC2)c2ccccc21`: the activity change, negative = inhibition in assay [1] was -3%; in assay [2] it was 1.61%; in assay [3], -0.521%; in assay [4] it was 0.551%; in assay [5] it was -5.12%.

With `CN(C)c1cccc(-c2cnc(NC(=O)c3ccncc3)c3c2CCO3)c1`, the activity change, negative = inhibition was -9.82% in assay [1]; -7.46% in assay [2]; -7.62% in assay [3]; -14.8% in assay [4]; -4.4% in assay [5].

As to `CCCn1c(=O)c2cc(F)ccc2n2c(SCc3ccccc3F)nnc12`, the activity change, negative = inhibition is -16.3% in assay [1]; 3.69% in assay [2]; 6.63% in assay [3]; -14.3% in assay [4]; 6.88% in assay [5].

With `CCOc1ccccc1C(=O)NC1CC(=O)N(CCc2ccc(F)cc2)C1` (stereo not given), the activity change, negative = inhibition was -3.73% in assay [1]; -14.9% in assay [2]; -3.23% in assay [3]; -20.2% in assay [4]; -3.65% in assay [5].
